Test results from a collection of fitness landscapes (doi:10.1016/j.celrep.2020.107928).
In all, about 81,000 sequences were measured (“one-hybrid fitness for binding parS DNA”: median about -0.17, highest 2% from about 0.51 on). This is one part of the list.

B1: Caulobacter ParB omega fusion; a variant is named by its letters at X, in order, B8GW30 (parent)
chain: MESVVVGEPGMSEGRRGLGRGLSALLGEVDAAPAQAPGEQLGGSREAPIEILQRNPDQPRRTFREEDLEDLSNSIREKGVLQPILVRPSPDTAGEYQIVAGERAWRAAQRAGLKTVPIMVRELDDLAVLEIGIIENVQRADLNVLEEALSYKVLMEKFERTQENIAQTIGKSXSHVANXMRLLXLPDEVQSYLVSGELTAXHARAIAAAADPVALAKQIIEGGLSVRETEALARKAPNLSAGKSKGGRPPRVKDTDTQALESDLSSVLGLDVSIDHRGSTGTLTITYATLEQLDDLCNRLTRGI

Variants of: B1
Experiment: one-hybrid fitness for binding parS DNA (scaled: cognate 1, non-cognate 0); higher = stronger binding
Conditions: with parS DNA site
How it was run: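 Fitness is the rescaled log change in variant-to-wild-type read ratio, measured by Illumina sequencing of plasmids before and after bacterial one-hybrid selection. The scale puts cognate at 1 and non-cognate at 0. Selection of Caulobacter ParB libraries, four specificity codons randomised, took place in E. coli USO with a HIS3 reporter, site 19 bp from the promoter, over 48 hours at 37°C on M9-minus-histidine with 0.1 mM IPTG and 5 mM 3-AT.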

Variant | one-hybrid fitness for binding parS DNA
VPVT | ≤ 0.2
CMKE | ≤ 0.2
QNFE | ≤ 0.2
YYKE | ≤ 0.2
SNMS | ≤ 0.2
LIMS | ≤ 0.2
TVVR | ≤ 0.2
MWMR | ≤ 0.2
KCLN | ≤ 0.2
YQQR | ≤ 0.2
RGKY | 0.436
QFWG | ≤ 0.2
MPDQ | ≤ 0.2
SQRT | ≤ 0.2
TLAA | ≤ 0.2
RRQF | ≤ 0.2
DGSS | ≤ 0.2
CMNW | ≤ 0.2
TAPC | ≤ 0.2
SAIQ | ≤ 0.2
PCSC | ≤ 0.2
MFRT | ≤ 0.2
TMEW | ≤ 0.2
AVRV | ≤ 0.2

Variant | one-hybrid fitness for binding parS DNA
NQHA | ≤ 0.2
NKDS | ≤ 0.2
RYPQ | ≤ 0.2
MGSG | ≤ 0.2
RSAW | 0.219
WAHL | ≤ 0.2
DEPA | ≤ 0.2
DQSQ | ≤ 0.2
SRKW | ≤ 0.2
NEST | ≤ 0.2
TVQG | ≤ 0.2
VVLH | ≤ 0.2
NTKY | ≤ 0.2
RADW | ≤ 0.2
KRNA | ≤ 0.2
RIIE | ≤ 0.2
SSNR | ≤ 0.2
GFKI | ≤ 0.2
HDIS | ≤ 0.2
NLYT | ≤ 0.2
AGNR | ≤ 0.2
IKNV | ≤ 0.2
GQNY | ≤ 0.2
QSRA | ≤ 0.2

Variant | one-hybrid fitness for binding parS DNA
STRT | ≤ 0.2
FIWL | ≤ 0.2
NPLT | ≤ 0.2
SMAM | ≤ 0.2
ARPN | ≤ 0.2
KAIS | ≤ 0.2
QLQC | ≤ 0.2
WLSW | ≤ 0.2
SPYW | ≤ 0.2
RVHG | 1.03
IRKA | ≤ 0.2
TSIS | ≤ 0.2
QWIR | ≤ 0.2
KQAM | ≤ 0.2
HIAT | ≤ 0.2
TGAH | ≤ 0.2
DADS | ≤ 0.2
EHSF | ≤ 0.2
ERCI | ≤ 0.2
HELI | ≤ 0.2
MAVV | ≤ 0.2
VNAV | ≤ 0.2
FCPR | ≤ 0.2
PNEF | ≤ 0.2

Variant | one-hybrid fitness for binding parS DNA
ACAG | ≤ 0.2
SDMG | ≤ 0.2
GLKG | ≤ 0.2
HRDA | ≤ 0.2
RLVK | ≤ 0.2
TSGP | ≤ 0.2
QGPM | ≤ 0.2
MPTS | ≤ 0.2
MPNC | ≤ 0.2
NNSW | ≤ 0.2
TKPY | ≤ 0.2
YTYL | ≤ 0.2
HFVM | ≤ 0.2
DCRL | ≤ 0.2
HCAL | ≤ 0.2
AEGV | ≤ 0.2
RYKI | ≤ 0.2
MNCG | ≤ 0.2
TSYS | ≤ 0.2
HSYS | ≤ 0.2
RSEC | 0.739
TQNL | ≤ 0.2
ESVC | ≤ 0.2
AFKA | ≤ 0.2

Variant | one-hybrid fitness for binding parS DNA
DEKH | ≤ 0.2
PCLG | ≤ 0.2
SMPS | ≤ 0.2
DSRS | ≤ 0.2
AVAA | ≤ 0.2
NRNW | ≤ 0.2
DGGR | ≤ 0.2
QGPR | ≤ 0.2
DPHG | ≤ 0.2
WYIG | ≤ 0.2
PLCS | ≤ 0.2
PPEI | ≤ 0.2
TSIR | ≤ 0.2
WCSS | ≤ 0.2
WAKA | ≤ 0.2
KRQA | ≤ 0.2
LTDC | ≤ 0.2
RCVI | ≤ 0.2
DSFM | ≤ 0.2
RHNI | ≤ 0.2
WSFA | ≤ 0.2
DDNL | ≤ 0.2
VMSH | ≤ 0.2
KSLD | ≤ 0.2

Variant | one-hybrid fitness for binding parS DNA
GDAG | ≤ 0.2
RQGK | ≤ 0.2
HAEV | ≤ 0.2
DCHF | ≤ 0.2
VPTN | ≤ 0.2
TMHV | ≤ 0.2
MLAV | ≤ 0.2
QVCA | ≤ 0.2
GWTS | ≤ 0.2
NRVV | ≤ 0.2
PDTS | ≤ 0.2
DWIE | ≤ 0.2
GGRY | ≤ 0.2
RHIQ | ≤ 0.2
CTCH | ≤ 0.2
KNPP | ≤ 0.2
HRAL | ≤ 0.2
AAFY | ≤ 0.2
KKMC | ≤ 0.2
GCYT | ≤ 0.2
SASH | ≤ 0.2
RVWC | 0.963
TTHT | ≤ 0.2
ATPA | ≤ 0.2

Variant | one-hybrid fitness for binding parS DNA
KPNG | ≤ 0.2
RSGQ | ≤ 0.2
DDSR | ≤ 0.2
FSNR | ≤ 0.2
YSVE | ≤ 0.2
YLRY | ≤ 0.2
VNRG | ≤ 0.2
TFTA | ≤ 0.2
SRHR | ≤ 0.2
HFDC | ≤ 0.2
GVHA | ≤ 0.2
RQMH | 0.292
PPNT | ≤ 0.2
RGDA | 0.235
PMGL | ≤ 0.2
VFTC | ≤ 0.2
RGKV | ≤ 0.2
WRSY | ≤ 0.2
DRLE | ≤ 0.2
SLSS | ≤ 0.2
EAKF | ≤ 0.2
PDVR | ≤ 0.2
VINR | ≤ 0.2
QRMG | ≤ 0.2

Variant | one-hybrid fitness for binding parS DNA
QKSQ | ≤ 0.2
NRDT | ≤ 0.2
PVVV | ≤ 0.2
MCRS | ≤ 0.2
QASL | ≤ 0.2
MPTC | ≤ 0.2
RQVT | 0.678
RFGT | 0.775
LVGC | ≤ 0.2
FVMG | ≤ 0.2
RSLW | 0.233
VNSK | ≤ 0.2
PSKY | ≤ 0.2
NNGR | ≤ 0.2
VITI | ≤ 0.2
QRMN | ≤ 0.2
NNCR | ≤ 0.2
RMYC | 1.01
SKVM | ≤ 0.2
LSPT | ≤ 0.2
AVTP | ≤ 0.2
CYDC | ≤ 0.2
NKNT | ≤ 0.2
RATY | 0.469

Variant | one-hybrid fitness for binding parS DNA
NPAS | ≤ 0.2
GSLA | ≤ 0.2
NDDV | ≤ 0.2
GPPV | ≤ 0.2
TQYV | ≤ 0.2
EDLL | ≤ 0.2
RPNR | ≤ 0.2
VKNC | ≤ 0.2
SRQR | ≤ 0.2
LAPT | ≤ 0.2
WGFG | ≤ 0.2
VLRG | ≤ 0.2
KHRR | ≤ 0.2
PVIS | ≤ 0.2
RQRT | 0.849
EKKR | ≤ 0.2
CRPM | ≤ 0.2
TPQL | ≤ 0.2
IRNC | ≤ 0.2
PVNS | ≤ 0.2
NSHS | ≤ 0.2
NGLL | ≤ 0.2
SMEV | 0.264
ETHT | ≤ 0.2

Variant | one-hybrid fitness for binding parS DNA
QLGH | ≤ 0.2
AITC | ≤ 0.2
VEGM | ≤ 0.2
RGCV | ≤ 0.2
FPVA | ≤ 0.2
QASR | ≤ 0.2
VEHG | ≤ 0.2
IKVY | ≤ 0.2
VQVC | ≤ 0.2
PFTI | ≤ 0.2
REPV | ≤ 0.2
HWRI | ≤ 0.2
EPSF | ≤ 0.2
ATAD | ≤ 0.2
HLPS | ≤ 0.2
VSHP | ≤ 0.2
QIMS | ≤ 0.2
EADS | ≤ 0.2
LYWS | ≤ 0.2
PLPP | ≤ 0.2
ECKN | ≤ 0.2
WRIS | ≤ 0.2
APPQ | ≤ 0.2
WKDV | ≤ 0.2

Variant | one-hybrid fitness for binding parS DNA
TPMT | ≤ 0.2
DVAI | ≤ 0.2
AARI | ≤ 0.2
DLHS | ≤ 0.2
QHNF | ≤ 0.2
AHLC | ≤ 0.2
NVAM | ≤ 0.2
QFYV | ≤ 0.2
EDRL | ≤ 0.2
GHQA | ≤ 0.2
RALQ | ≤ 0.2
CLEW | ≤ 0.2
PTDT | ≤ 0.2
YWSL | ≤ 0.2
SREC | ≤ 0.2
KTGW | ≤ 0.2
SASV | ≤ 0.2
RYFN | 0.425
RCLP | ≤ 0.2
SHIG | ≤ 0.2
QHAH | ≤ 0.2
PNWR | ≤ 0.2
PVHI | ≤ 0.2
PWQS | ≤ 0.2

Variant | one-hybrid fitness for binding parS DNA
LLWS | ≤ 0.2
SLPE | ≤ 0.2
AIGL | ≤ 0.2
CANC | ≤ 0.2
LRLE | ≤ 0.2
SLAW | ≤ 0.2
PQML | ≤ 0.2
DMPN | ≤ 0.2
PYQL | ≤ 0.2
RMDM | 0.302
LDMR | ≤ 0.2
IEMC | ≤ 0.2
RAYY | 0.501
IWIR | ≤ 0.2
ECEG | ≤ 0.2
HETG | ≤ 0.2
WANL | ≤ 0.2
VRER | ≤ 0.2
QIDM | ≤ 0.2
SWLS | ≤ 0.2
APYC | ≤ 0.2
GHNV | ≤ 0.2
KRCA | ≤ 0.2
QTCN | ≤ 0.2

Variant | one-hybrid fitness for binding parS DNA
PMVW | ≤ 0.2
RTMF | 0.245
RMLT | 0.974
ANHY | ≤ 0.2
ATAF | ≤ 0.2
SMHM | ≤ 0.2
QAIL | ≤ 0.2
RMIM | 0.324
YTIG | ≤ 0.2
TTKK | ≤ 0.2
LFFS | ≤ 0.2
GMVV | ≤ 0.2
SMSL | ≤ 0.2
SWTY | ≤ 0.2
QHHL | ≤ 0.2
WESR | ≤ 0.2
DKAY | ≤ 0.2
STAL | ≤ 0.2
